The target in test [1] is Rho-associated protein kinase 1 (Homo sapiens) (UniProt Q13464). To be noted: at 1 µM.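 Also: reported values are mean percent inhibition of ROCK1.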
The target in test [2] is Rho-associated protein kinase 2 (Homo sapiens) (UniProt O75116). The following applies: at 0.1 µM.
Test [3] shares this target. The following applies: at 1 µM.
Test [4] has as its target Ribosomal protein S6 kinase alpha-1 (Homo sapiens) (UniProt Q15418). To be noted: at 0.1 µM.
Test [5] has the same target. To be noted: at 1 µM.
Test [6] addresses Ribosomal protein S6 kinase alpha-3 (Homo sapiens) (UniProt P51812). The following applies: at 0.1 µM.
For test [7] the target is unchanged. The following applies: at 1 µM.
In test [8] the target is Ribosomal protein S6 kinase alpha-2 (Homo sapiens) (UniProt Q15349). To be noted: at 0.1 µM.
For test [9] the target is unchanged. To be noted: at 1 µM.
In test [10] the target is Ribosomal protein S6 kinase alpha-6 (Homo sapiens) (UniProt Q9UK32). The following applies: at 0.1 µM.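 Also: reported value is the mean inhibition of RSK4, from the GSK PKIS kinase inhibitor screen.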

For some assays here: What follows is the remainder of the data, with few or none of the strong results. The list shows a part of the results, in another mix than the full data.

Sequence of UniProt Q15418 (Q15418 whole entry): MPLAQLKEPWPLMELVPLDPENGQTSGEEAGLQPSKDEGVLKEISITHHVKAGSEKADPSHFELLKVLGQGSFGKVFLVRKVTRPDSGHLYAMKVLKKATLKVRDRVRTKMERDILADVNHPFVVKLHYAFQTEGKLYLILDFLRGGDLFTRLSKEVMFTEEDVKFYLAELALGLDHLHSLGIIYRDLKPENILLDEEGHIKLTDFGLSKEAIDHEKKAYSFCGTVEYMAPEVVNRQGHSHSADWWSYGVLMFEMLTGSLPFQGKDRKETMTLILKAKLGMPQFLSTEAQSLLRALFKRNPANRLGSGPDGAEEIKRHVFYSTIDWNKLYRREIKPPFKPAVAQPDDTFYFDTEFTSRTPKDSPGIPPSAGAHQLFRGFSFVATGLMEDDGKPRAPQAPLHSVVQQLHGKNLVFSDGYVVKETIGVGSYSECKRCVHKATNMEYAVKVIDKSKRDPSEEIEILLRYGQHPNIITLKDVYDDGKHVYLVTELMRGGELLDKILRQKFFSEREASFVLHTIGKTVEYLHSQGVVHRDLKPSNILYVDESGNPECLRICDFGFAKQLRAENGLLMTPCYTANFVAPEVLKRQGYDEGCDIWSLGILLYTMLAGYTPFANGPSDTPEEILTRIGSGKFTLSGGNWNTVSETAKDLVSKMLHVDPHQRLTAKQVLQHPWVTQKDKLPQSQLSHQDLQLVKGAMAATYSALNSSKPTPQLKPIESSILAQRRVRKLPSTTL
Sequence of UniProt Q9UK32 (Q9UK32 whole entry): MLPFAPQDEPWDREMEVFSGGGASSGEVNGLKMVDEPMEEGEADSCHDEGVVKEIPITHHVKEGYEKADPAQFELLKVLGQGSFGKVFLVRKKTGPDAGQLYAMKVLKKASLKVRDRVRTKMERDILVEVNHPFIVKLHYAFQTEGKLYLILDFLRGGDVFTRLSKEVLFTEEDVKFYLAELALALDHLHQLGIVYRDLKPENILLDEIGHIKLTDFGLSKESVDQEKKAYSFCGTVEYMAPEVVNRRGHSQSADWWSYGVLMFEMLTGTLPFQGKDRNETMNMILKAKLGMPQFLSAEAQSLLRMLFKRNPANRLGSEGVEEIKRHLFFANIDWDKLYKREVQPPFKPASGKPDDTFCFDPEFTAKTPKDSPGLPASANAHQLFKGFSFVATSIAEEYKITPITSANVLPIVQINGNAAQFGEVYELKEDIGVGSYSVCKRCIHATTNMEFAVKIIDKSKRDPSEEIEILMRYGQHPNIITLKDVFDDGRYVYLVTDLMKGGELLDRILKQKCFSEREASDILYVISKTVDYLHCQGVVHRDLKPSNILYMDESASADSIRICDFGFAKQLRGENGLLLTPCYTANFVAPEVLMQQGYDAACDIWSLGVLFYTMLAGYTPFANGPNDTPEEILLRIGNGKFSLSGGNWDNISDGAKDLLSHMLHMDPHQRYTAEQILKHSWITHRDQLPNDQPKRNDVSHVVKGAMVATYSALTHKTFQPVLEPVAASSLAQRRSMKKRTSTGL
Sequence of UniProt P51812 (P51812 whole entry): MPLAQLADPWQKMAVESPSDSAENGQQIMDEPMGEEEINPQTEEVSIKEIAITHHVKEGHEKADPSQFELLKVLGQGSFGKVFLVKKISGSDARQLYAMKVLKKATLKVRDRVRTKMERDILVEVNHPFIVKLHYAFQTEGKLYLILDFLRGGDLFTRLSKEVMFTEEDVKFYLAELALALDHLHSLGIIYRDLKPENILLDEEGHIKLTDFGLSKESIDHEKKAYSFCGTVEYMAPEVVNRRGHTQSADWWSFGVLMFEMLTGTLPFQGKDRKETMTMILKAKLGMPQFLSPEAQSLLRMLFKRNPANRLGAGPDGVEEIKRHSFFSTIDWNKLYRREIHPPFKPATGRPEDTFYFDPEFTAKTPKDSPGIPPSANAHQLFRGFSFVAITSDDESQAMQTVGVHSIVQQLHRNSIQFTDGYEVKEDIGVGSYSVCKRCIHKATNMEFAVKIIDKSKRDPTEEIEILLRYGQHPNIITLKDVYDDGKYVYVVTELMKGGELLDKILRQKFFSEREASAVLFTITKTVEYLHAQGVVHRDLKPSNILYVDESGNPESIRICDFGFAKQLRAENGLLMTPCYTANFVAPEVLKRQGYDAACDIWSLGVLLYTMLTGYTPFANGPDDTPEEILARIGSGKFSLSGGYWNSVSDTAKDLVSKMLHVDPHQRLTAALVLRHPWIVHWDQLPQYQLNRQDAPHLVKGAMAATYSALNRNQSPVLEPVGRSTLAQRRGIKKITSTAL
Sequence of UniProt Q13464 (Q13464 whole entry, looked up): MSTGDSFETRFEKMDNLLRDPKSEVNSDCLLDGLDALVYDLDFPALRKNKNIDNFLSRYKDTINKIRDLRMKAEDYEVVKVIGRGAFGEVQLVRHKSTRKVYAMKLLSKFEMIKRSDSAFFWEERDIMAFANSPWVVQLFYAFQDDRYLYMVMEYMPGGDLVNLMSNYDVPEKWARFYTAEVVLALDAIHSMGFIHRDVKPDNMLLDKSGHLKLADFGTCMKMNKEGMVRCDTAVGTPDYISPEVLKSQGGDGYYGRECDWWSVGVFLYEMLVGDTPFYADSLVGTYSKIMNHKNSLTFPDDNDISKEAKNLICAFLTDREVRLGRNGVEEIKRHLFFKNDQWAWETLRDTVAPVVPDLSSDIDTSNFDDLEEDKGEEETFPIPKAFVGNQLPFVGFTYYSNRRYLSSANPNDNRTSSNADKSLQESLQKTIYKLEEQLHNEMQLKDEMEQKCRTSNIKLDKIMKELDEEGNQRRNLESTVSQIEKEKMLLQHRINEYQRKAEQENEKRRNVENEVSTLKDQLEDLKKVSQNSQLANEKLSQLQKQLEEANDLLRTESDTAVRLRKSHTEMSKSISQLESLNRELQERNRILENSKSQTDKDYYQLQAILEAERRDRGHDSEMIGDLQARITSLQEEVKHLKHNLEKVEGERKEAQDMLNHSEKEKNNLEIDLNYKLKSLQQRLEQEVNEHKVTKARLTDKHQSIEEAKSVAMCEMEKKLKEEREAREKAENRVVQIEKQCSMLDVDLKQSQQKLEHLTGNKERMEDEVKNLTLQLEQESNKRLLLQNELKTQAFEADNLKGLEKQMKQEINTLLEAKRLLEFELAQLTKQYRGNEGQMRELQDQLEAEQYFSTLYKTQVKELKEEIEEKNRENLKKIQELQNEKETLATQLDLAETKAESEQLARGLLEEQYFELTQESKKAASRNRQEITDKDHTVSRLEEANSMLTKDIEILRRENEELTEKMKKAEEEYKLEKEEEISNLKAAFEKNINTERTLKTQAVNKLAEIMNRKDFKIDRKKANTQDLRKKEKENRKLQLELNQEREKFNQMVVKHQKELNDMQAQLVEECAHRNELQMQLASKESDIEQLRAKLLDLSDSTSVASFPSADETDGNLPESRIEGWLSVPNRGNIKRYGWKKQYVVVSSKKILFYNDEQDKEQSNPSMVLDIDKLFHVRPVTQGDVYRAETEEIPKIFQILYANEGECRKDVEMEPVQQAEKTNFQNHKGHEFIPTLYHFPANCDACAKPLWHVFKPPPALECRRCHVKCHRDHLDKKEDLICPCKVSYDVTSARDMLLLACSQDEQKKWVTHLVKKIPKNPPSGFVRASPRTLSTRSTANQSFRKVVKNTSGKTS
Sequence of UniProt Q15349 (Q15349 whole entry): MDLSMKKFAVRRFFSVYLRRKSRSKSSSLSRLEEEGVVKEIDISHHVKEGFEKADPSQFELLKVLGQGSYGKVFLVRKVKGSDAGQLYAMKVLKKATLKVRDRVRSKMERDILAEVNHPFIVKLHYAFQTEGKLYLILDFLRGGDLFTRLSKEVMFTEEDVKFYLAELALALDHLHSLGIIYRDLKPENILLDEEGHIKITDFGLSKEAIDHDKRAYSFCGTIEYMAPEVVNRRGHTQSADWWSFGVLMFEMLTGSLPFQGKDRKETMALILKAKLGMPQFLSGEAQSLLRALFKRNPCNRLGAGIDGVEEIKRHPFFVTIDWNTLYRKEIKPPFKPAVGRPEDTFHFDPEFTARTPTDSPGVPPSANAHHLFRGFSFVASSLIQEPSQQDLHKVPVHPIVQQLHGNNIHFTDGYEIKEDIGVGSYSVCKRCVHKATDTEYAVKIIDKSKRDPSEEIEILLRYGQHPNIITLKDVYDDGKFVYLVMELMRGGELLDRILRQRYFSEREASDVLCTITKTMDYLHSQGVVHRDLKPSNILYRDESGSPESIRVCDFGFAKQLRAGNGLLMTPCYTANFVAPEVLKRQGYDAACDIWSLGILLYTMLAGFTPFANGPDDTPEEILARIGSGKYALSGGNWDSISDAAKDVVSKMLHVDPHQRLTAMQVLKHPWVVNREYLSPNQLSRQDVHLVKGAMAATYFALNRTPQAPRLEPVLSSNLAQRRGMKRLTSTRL

As usually defined, the inhibition is the drop in the measured response relative to a control, in per cent. Turning to `CS(=O)(=O)c1ccc(Oc2nccc(-c3c(-c4ccc(F)cc4)ncn3C3CCNCC3)n2)cc1`, the inhibition was determined as 3.26% in test [1]; 3.03% in test [2]; 3.45% in test [3]; 0.27% in test [4]; 1.4% in test [5]; 1.64% in [6]. Besides, the inhibition in test [7] was 1.45%; in [8], 1.73%; in test [9], 2.32%; in test [10], 0.53%.
For the compound `Fc1ccc(Oc2nccc(-c3c(-c4ccc(F)cc4)ncn3C3CCNCC3)n2)cc1`, the inhibition in test [1] was 1.58%; in test [2] it was 2.81%; in test [3], 2.18%; in [4], 1.25%; in [5], 0.35%; in test [6], -0.53%. Further, the inhibition was -1.25% in test [7], 2.02% in test [8], 0.02% in test [9] and 0.73% in test [10].
For the compound `Cc1cccc(Oc2nccc(-c3c(-c4ccc(F)cc4)ncn3C3CCNCC3)n2)c1C`, the inhibition in test [1] stood at 4.68%; in test [2], 2.54%; in test [3], 4.11%; in [4], 1.47%; in test [5], 2.71%; in [6], 1.59%. Also, the inhibition was determined as 2.56% in test [7], 2.62% in test [8], 4.17% in [9] and 0.82% in [10].
In the case of `O=C1NC(=O)C(c2ccccc2)=C1Nc1ccccc1`, the inhibition amounted to 0.95% in test [1]; 3.61% in [2]; 4.65% in test [3]; 3.28% in [4]; 10.2% in test [5]; 2.84% in test [6]. Further, the inhibition in [7] is 12.1%; in [8] it was 4.11%; in [9] it was 9.99%; in test [10] it was 1.85%.
On to `COc1ccccc1Oc1nccc(-c2c(-c3ccc(F)cc3)ncn2C2CCNCC2)n1`, for which the inhibition is 6.23% in [1]; 3.92% in test [2]; 7.66% in test [3]; 1.31% in test [4]; 3.85% in test [5]; -0.14% in test [6]. Also, the inhibition in [7] is 2.74%; in [8], 3.32%; in test [9] it was 4.89%; in test [10] it was 0.85%.
With `Fc1ccc(-c2ncn(C3CCNCC3)c2-c2ccnc(Oc3ccc(Cl)cc3)n2)cc1`, the inhibition in test [1] was 2.5%; in test [2], 0.7%; in [3] it was 0.87%; in test [4] it was -0.43%; in [5], -0.6%; in test [6], -1.56%. Also, the inhibition in test [7] is -0.44%; in test [8], 0.99%; in test [9], 2.01%; in test [10], -0.75%.
As for `O=C1NC(=O)C(c2cccc([N+](=O)[O-])c2)=C1Nc1cc(Cl)c(O)c(Cl)c1`, the inhibition is -0.21% in test [1]; 1.79% in test [2]; 0.12% in test [3]; 0.63% in [4]; 3.34% in test [5]; 2.73% in test [6]. In addition, the inhibition in [7] was found to be 9.07%; in [8] it was 1.76%; in test [9], 10.8%; in test [10], 1.82%.
Consider `O=C(O)c1ccc(Oc2nccc(-c3c(-c4ccc(F)cc4)ncn3C3CCNCC3)n2)cc1`, for which the inhibition in test [1] is 2.08%; in test [2], 2.6%; in [3], 3.44%; in test [4], 0.55%; in test [5], 1.46%; in test [6] it was -0.13%. Also, the inhibition in [7] is 1.21%; in test [8] it was 0.19%; in [9], 2.1%; in [10] it was -0.07%.
As for `O=C1NC(=O)C(c2ccccc2Cl)=C1Nc1cc(Cl)c(O)c(Cl)c1`, the inhibition was 2.31% in test [1]; 3.01% in test [2]; 7.02% in test [3]; 0.93% in [4]; 3.76% in [5]; 0.19% in test [6]. The inhibition was 1.69% in [7], 1.27% in test [8], 2.74% in test [9] and 0.39% in [10].
For the compound `COc1ccccc1C1=C(Nc2ccccc2)C(=O)NC1=O`, the inhibition in test [1] amounted to 0.72%; in test [2], 3.16%; in test [3], 4.34%; in test [4], 1.67%; in test [5], 4.91%; in test [6] it was 1.36%. In addition, the inhibition in [7] amounted to 4.83%; in test [8], 2.69%; in test [9], 11.3%; in test [10] it was 2.45%.
Turning to `CC(C)(C)c1ccc(Oc2nccc(-c3c(-c4ccc(F)cc4)ncn3C3CCNCC3)n2)cc1`, the inhibition in test [1] worked out at 4.05%; in [2] it was 2.97%; in [3] it was 3.48%; in test [4], 0.88%; in test [5] it was 0.99%; in test [6] it was 1.1%. Moreover, the inhibition turned out to be 1.87% in test [7], 1.55% in test [8], 2.44% in test [9] and 0.79% in [10].
In the case of `NC(=O)CCc1ccccc1Oc1nccc(-c2c(-c3ccc(F)cc3)ncn2C2CCNCC2)n1`, the inhibition is 0.72% in test [1]; -0.65% in [2]; -0.5% in test [3]; -0.45% in [4]; 1.1% in test [5]; -0.57% in test [6]. Also, the inhibition in test [7] was -1.82%; in test [8], 0.35%; in test [9] it was 0.42%; in [10], -1.65%.
Turning to `Fc1ccc(-c2ncn(C3CCNCC3)c2-c2ccnc(Oc3cccc(F)c3)n2)cc1`, the inhibition is 4.1% in test [1]; 4.09% in [2]; 4.98% in [3]; 3.06% in [4]; 2.03% in test [5]; -0.53% in [6]. In addition, the inhibition amounted to 2.66% in test [7], 3.43% in test [8], 4.59% in test [9] and 1.37% in [10].
`Fc1ccc(-c2ncn(C3CCNCC3)c2-c2ccnc(Oc3cccc(C(F)(F)F)c3)n2)cc1`: the inhibition came to 3.13% in test [1]; 3.87% in test [2]; 3.72% in test [3]; 1.78% in [4]; 5.59% in test [5]; 1.01% in [6]. Also, the inhibition was -0.14% in test [7], 2.37% in [8], 2.82% in test [9] and 0.51% in test [10].

Source of the values: ChEMBL document CHEMBL1961873, “Compounds: GSK PKIS; Assays: Nanosyn kinase panel” (2012).
